Hit rate of the full screen: of about 310,000 compounds, about 2,200 (0.71%) showed an effect of 50% or more. The effect is printed as a negative number. The list shows a part of the results.
What follows are compounds tested against human ether-à-go-go-related gene (hERG) potassium channel (human, UniProt Q12809) (assay: primary screen, population patch clamp on CHO cells stably expressing hERG).
Sequence of human ether-à-go-go-related gene (hERG) potassium channel (Q12809 whole entry, looked up): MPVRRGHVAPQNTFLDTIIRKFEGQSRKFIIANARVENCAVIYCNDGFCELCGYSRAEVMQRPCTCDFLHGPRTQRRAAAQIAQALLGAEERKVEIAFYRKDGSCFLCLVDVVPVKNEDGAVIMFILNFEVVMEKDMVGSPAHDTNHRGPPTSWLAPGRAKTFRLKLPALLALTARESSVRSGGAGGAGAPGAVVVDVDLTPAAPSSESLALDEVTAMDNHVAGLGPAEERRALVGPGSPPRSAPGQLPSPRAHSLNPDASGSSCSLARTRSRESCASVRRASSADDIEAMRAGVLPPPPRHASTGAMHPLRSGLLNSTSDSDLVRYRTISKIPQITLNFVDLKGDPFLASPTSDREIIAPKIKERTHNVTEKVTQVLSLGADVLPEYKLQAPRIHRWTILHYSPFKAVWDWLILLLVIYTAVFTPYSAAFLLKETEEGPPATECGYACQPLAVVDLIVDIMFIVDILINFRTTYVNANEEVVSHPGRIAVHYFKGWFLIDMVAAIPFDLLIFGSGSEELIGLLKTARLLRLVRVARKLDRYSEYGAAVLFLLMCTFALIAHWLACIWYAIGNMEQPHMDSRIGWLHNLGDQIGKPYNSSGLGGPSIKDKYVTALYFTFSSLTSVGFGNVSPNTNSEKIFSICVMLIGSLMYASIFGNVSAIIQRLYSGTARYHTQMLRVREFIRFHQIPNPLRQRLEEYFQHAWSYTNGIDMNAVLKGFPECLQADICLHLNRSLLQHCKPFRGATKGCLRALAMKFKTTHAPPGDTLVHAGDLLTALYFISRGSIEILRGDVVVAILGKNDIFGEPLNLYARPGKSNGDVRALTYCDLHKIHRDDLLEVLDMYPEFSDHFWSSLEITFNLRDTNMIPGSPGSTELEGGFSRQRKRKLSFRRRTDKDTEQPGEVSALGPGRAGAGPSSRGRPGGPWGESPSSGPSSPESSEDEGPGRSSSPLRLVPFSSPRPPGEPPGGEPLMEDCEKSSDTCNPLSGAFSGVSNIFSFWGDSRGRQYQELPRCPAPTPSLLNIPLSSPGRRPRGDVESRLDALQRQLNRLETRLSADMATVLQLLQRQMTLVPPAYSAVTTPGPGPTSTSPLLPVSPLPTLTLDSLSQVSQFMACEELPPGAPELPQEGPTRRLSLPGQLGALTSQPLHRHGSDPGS

SMILES	hERG current change (%, negative = inhibition) at 1uM [%]
COc1cc(CNC(C)C)c(Br)cc1OC1CCCC1.Cl	7.89
COC(=O)C/C=C/[C@@H](C)[C@@H](/C=N/OC[C@@H](C)[C@H](OCc1ccccc1)C(C)C)NS(=O)(=O)c1ccc(C)cc1	8.39
CC(C)NC(=O)c1onc(CSc2ccncc2)c1C(=O)NC(C)C	10.7
O=C(NCc1ccc(F)cc1)C(c1ccco1)N(C(=O)c1csnn1)c1ccccc1 (centres unmarked)	3.49
CCC(=O)Nc1nnc(SCC(=O)c2ccc3c(c2)Cc2ccccc2-3)s1	9.92
CC(C)c1ccc(NC2CCCN(C(=O)c3ccnn3C)C2)cc1 (centres unmarked)	8
COc1cccc(N2CCN(Cc3nc4ccccc4c(=O)[nH]3)CC2)c1	3.68
CN(C)S(=O)(=O)c1ccc(Cl)c(NC(=O)COC(=O)c2ccc3c(c2)NC(=O)CS3)c1	9.27
Cc1ccccc1N1CCN(C(=S)c2ccc(-c3ccc([N+](=O)[O-])cc3)o2)CC1	15.9
CCC(C)NC(=O)c1cc(-c2cccs2)nc2ccccc12 (centres unmarked)	18.8
CCC(C)(NC(=O)c1cccc(N2C(=O)CSC2c2ccccc2)c1)C(=O)Nc1ccccc1C (centres unmarked)	10.4
COc1cc(OC)cc(-c2c(-c3cccs3)c3cc(-c4cccc5[nH]ccc45)ccc3n2C)c1	17.3
Cc1nnc(SCC(=O)NNC(=O)CC#N)[nH]c1=O	2.44
Cc1cc2occ(CC(=O)NC3(C)CCS(=O)(=O)C3)c2cc1C (centres unmarked)	0.741
COC(=O)c1ccc(-n2cnc(Cl)n2)c(F)c1	3.18
CCCCNC(=O)CC(=O)Nc1ccccc1C(=O)O	8.21
Cn1c(NC(=O)C2c3ccccc3Oc3ccccc32)cc(=O)n(C)c1=O	8.56
O=c1cc(NCc2ccccc2)nc2ccccn12	14.2
COc1ccc(C(C)(C)C)cc1S(=O)(=O)N1CCC(C(N)=O)CC1	16.9
CCOc1cccc(CNCc2cccnc2)c1OCc1ccccc1.Cl	-0.955
CCN1C(=O)N(C)[C@@H](c2ccccc2)C(C(=O)OC)=C1C	4.86
Cc1nc(=O)c(-c2ccccc2)c(C)n1-c1ccccc1O	15.1
CCC(c1nnnn1C1CCCCC1)N1CCN(C(=O)c2ccco2)CC1.Cl (centres unmarked)	13

SMILES	hERG current change (%, negative = inhibition) at 1uM [%]
CCSc1nnc([C@@H](NC(=O)OC(C)(C)C)C(C)C)o1	9.61
Cc1ccccc1OCc1nc2c3cnn(C)c3ncn2n1	13.7
COC(=O)c1cc(NC(=O)C2C3C=CC(C3)C2C(=O)O)cc(C(=O)OC)c1 (centres unmarked)	1.02
CCOC(=O)c1c(C)[nH]c(C(=O)CSc2nnc(Nc3ccccc3F)s2)c1C	2.15
CC1(NC(=O)CCS(=O)(=O)c2ccc(Cl)cc2)CCS(=O)(=O)C1 (centres unmarked)	7.93
CN1CCN(c2ccc([N+](=O)[O-])c(NCc3ccco3)c2)CC1	-9.43
O=C(O/N=C1/CCSc2ccccc21)c1ccccc1	10.6
CC(C)(C)c1ccc(C(=O)NCCCNC(=O)c2ccccn2)cc1	1.66
CC1(C)C2CC[C@]3(C)C(CC=C4[C@@H]5C[C@@](C)(CO)[C@@H]6C[C@@]5(CC[C@]43C)C(=O)O6)[C@@]2(C)CC[C@@H]1O (some centres unmarked)	16.2
Cc1ccc(C(=O)CSc2ncn[nH]2)cc1	-2.14
Cc1ccc(SC/C(O)=C(\C#N)c2nc3ccccc3s2)cc1	17.8
O=C(NCc1ccco1)/C(=C\c1cccs1)NC(=O)c1cccs1	15.5
CCn1c(C(=O)NC2CCC(C)CC2)cc2sccc21 (centres unmarked)	16.5
Cc1ccc(S(=O)(=O)NC(=O)Nc2ccccc2F)cc1	13.1
COc1ccc(NC(=O)c2nc[nH]c2C(=O)N2CCN(C(=O)OC(C)(C)C)CC2)cc1	-18.4
COC(=O)c1ccc(C(=O)OC)c(-n2c(=O)c3ccccc3c3ccccc3c2=O)c1	3.79
CN(C)N=Nc1ccc(S(=O)(=O)NC(Cc2ccccc2)C(=O)O)cc1 (centres unmarked)	24.8
Cc1cccc(Oc2ncc(-c3ccc(Cl)cc3)cn2)c1	4.87
OC[C@@H](O)[C@@H](O)CO	8.33
O=C(CCNS(=O)(=O)c1ccccc1)N1CCCCCC1	25.9
O=C(c1ccc2c(c1)OCO2)N1CCN(c2ccc(C(F)(F)F)cn2)CC1	-34.5
Cc1nc(N2CCN(c3ccccc3)CC2)nc2c1C(=O)CCC2	-0.421
CCOC(=O)CN1NC2(CCCCC2)NC1=S	14.4

SMILES	hERG current change (%, negative = inhibition) at 1uM [%]
Cc1sc2ncn(CC(=O)N3CCN(c4ccccn4)CC3)c(=O)c2c1S(=O)(=O)N1CCC(C)CC1	11.9
O=C(NCc1ccncc1)C1CCCN(S(=O)(=O)c2ccc(Br)cc2)C1 (centres unmarked)	-24.7
COCC1CCN(C(=O)c2cc(COc3ccc(OC)c4ccccc34)on2)C1 (centres unmarked)	9.08
Oc1ccc(C[C@H]2CNCCN2CC2(c3ccccc3)CC2)cc1	-0.516
COc1ccc(C2CC(C)(c3ccc(OC)cc3)Nc3ccccc3N2)cc1 (centres unmarked)	12.5
CC(C)(C)C1CCC(C(=O)NCCc2ccc(S(N)(=O)=O)cc2)CC1 (centres unmarked)	14.6
CSc1ncc(Cl)c(C(=O)Nc2ccc(C)c(C)c2)n1	11.6
COc1ccc(N2C(=O)CSC2c2cccc(F)c2)cc1 (centres unmarked)	14.3
CCN=C1S/C(=C\c2cn(CC(=O)NCCOC)c3ccccc23)C(=O)N1CC	10.4
Cc1ccc2nc3c(cc(C(=O)NC4CCCCC4)c(=N)n3C3CCCCC3)c(=O)n2c1	-72.7
COc1ccc(CCNCC(O)c2ccccc2)cc1.O=C(O)C(=O)O (centres unmarked)	-4.18
C/C(N)=C(/C#N)C(=O)CSc1nc2scc(-c3ccc(F)cc3)c2c(=O)n1C	5.8
O=C(c1c[nH]c2ccccc2c1=O)N1CCCCCC1	12.3
COc1ccc(NC(=O)CCNC(=O)C2CCN(S(=O)(=O)c3ccc(F)cc3)CC2)cc1OC	13.5
Cn1cc(C(=O)N/N=C/c2cccs2)c2ccccc21	-2.92
O=C(CCN1CCOCC1)c1ccc2c(c1)OCCO2	8.47
CC(C)COP(=O)(c1ccc(N(C)C)cc1)C(O)c1cccnc1 (centres unmarked)	10.2
CCc1ccc(N/C(SCc2cccc(F)c2)=C(/C#N)C(=O)NCc2ccco2)cc1	11.6
Cc1ccccc1C(=O)NNC(=S)Nc1cccc(C(F)(F)F)c1	13.2
CC(NCC(=O)Nc1ccccc1C(=O)NC1CC1)c1cccc(C(F)(F)F)c1 (centres unmarked)	-0.954
CCSc1nnc(NC(=O)COc2ccc3ccccc3c2)s1	8.56
O=C(Nc1cccc(-c2nc3ccccc3s2)c1)c1ccc2c(c1)OCO2	-15.1
COc1ccc(NS(=O)(=O)c2ccc3c(c2)Cc2ccccc2-3)cn1	16.8

SMILES	hERG current change (%, negative = inhibition) at 1uM [%]
COc1ccc(S(=O)(=O)Nc2ccc3c(c2)OCCO3)cc1OC	11.3
COc1ccc2[nH]cc(C(=O)CN3CC(C)CC(C)C3)c2c1 (centres unmarked)	6.1
Cc1cccc(NC(=O)c2cc(=O)[nH]c3ccccc23)c1	20
O=C(CNC(=O)c1cccs1)NCC(=O)OCc1ccccc1Br	5.88
CCC(=O)N(Cc1ccco1)c1nc(C(=O)Nc2ccc(Cl)cc2)c(C)s1	12.2
O=C(COC(=O)/C=C/c1ccccc1Cl)NC1CCCCCC1	5.89
CC(Sc1nnc(Cc2ccc([N+](=O)[O-])cc2)o1)C(N)=O (centres unmarked)	2.44
Cc1ccc(NC(=O)CN2C(=O)CSC2=O)cc1	7.19
O=C(Nc1cccc(S(=O)(=O)Nc2ccc(Cl)cc2)c1)c1ccc[n+]([O-])c1	9.69
CC(NC(=O)COC(=O)CNC(=O)C1CCCCC1)c1ccccc1 (centres unmarked)	7.99
CCC(C)OC(=O)C(C)Oc1ccc(-c2ccccc2)cc1 (centres unmarked)	5.46
COc1ccc(C(=O)N2CCN(C(=O)C3COc4ccccc4O3)CC2)cc1OC (centres unmarked)	1.84
CCN(CC)S(=O)(=O)c1ccc(-c2csc(C)n2)s1	6.13
CCn1c(SCC(=O)c2cc(C)n(C)c2C)nnc1-c1ccccc1	17.3
CSc1ccc(/C=C(/NC(=O)c2ccccc2)C(=O)NCCCn2ccnc2)cc1	-15.6
O=C(CN(C(=O)CCC(=O)Nc1nccs1)c1ccc(F)cc1)NCc1ccc2c(c1)OCO2	15.3
CCC(=O)N(CC(=O)Nc1sc(C)c(C)c1C(N)=O)C1CCCCC1	13.9
O=C(Nc1ccccc1)c1ccc(-c2ccc([N+](=O)[O-])cc2)o1	9.95
Cc1ccc(SCC(=O)Nc2nncs2)cc1	10.9
Cn1c(O)c(C=NC2C(=O)C3(C)CCC2C3(C)C)c(=O)n(C)c1=O (centres unmarked)	8.64
